This is one part of the list.
What follows are sequences tested on PfAP2-HC AP2 domain (GST-tagged) (assay: gcPBM binding intensity (ln(normalized median fluorescence intensity)); higher = stronger DNA binding).
Procedure, shortened: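 GST-tagged P. falciparum DNA-binding domains produced in E. coli were incubated for 1 h on an Agilent 4 × 180k array of primer-extended double-stranded 36-bp intergenic genomic probes with negative controls. Binding intensity is the highest Masliner-normalised natural-log median intensity across replicate spots of either probe orientation, with bound protein detected by Alexa488 anti-GST antibody at 488 nm.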
For “AATGTTTATTTTGTTTGTACATAAAATGAATAAAAT [XGTACX_site1456]”, the “gcPBM binding intensity (ln)” value was 9.49. In the case of “GTTATATATTTTTATGCATGCATTTTTAAATATATA [TGCATGCA_site175]”, the “gcPBM binding intensity (ln)” value is reported as 9.73. For “GTTTTTTTGTTTTAAAGTACTTAAAAAAAAAATATA [XGTACX_site6998]”, the “gcPBM binding intensity (ln)” value was 9.36. In the case of “GATAAAACGTTATGCACACGTACGTGAGTATTTATA [CACACA_site1570]”, the “gcPBM binding intensity (ln)” value is reported as 9.87. In the case of “AATGATAAATAAAAAGCATGCAACAAATAAAAATAA [TGCATGCA_site453]”, the “gcPBM binding intensity (ln)” value is reported as 10.1. With “AACAAAACTTTGGATACATGCAAAATTTTTAAATGA [TGCATGCA_site249]” the “gcPBM binding intensity (ln)” value was 9.6. For TCATTTTTTTGTTTGGTGCGACTTGAAAATTTGATT, the “gcPBM binding intensity (ln)” value was 9.79. In the case of “TTGTACATCTTTTGCACACGTAATGTTATTATAATA [CACACA_site1258]”, the “gcPBM binding intensity (ln)” value is reported as 9.87. “TTATAACTTTTGAGCACACACAAGCATATAAATATA [CACACA_site6933]” was tested, and the “gcPBM binding intensity (ln)” value was 9.77. “AAATACTGTAAAAAAGCATGCCACTAATAATAATTA [TGCATGCA_site759]” was tested, and the “gcPBM binding intensity (ln)” value was 9.71. With “AGAGAATAAATATAAAGTACATATATAAATATATAT [XGTACX_site5055]” the “gcPBM binding intensity (ln)” value was 9.7. In the case of “ATGTTATAAATCTTAATATATATATGCAAAAGAGAA [XGTACX_negctrl_site521]”, the “gcPBM binding intensity (ln)” value is reported as 9.69. In the case of “ACATATACAAAACACACACACAACGTTTTAATAAAT [CACACA_site1979]”, the “gcPBM binding intensity (ln)” value is reported as 10.7. For “GTATATAAAAATTCATGTACATATTATTATTTTTAA [XGTACX_site658]”, the “gcPBM binding intensity (ln)” value was 9.54. For “ACCTTTGTAGTTGGTCCACACACATATATGGAAGAA [CACACA_site8351]”, the “gcPBM binding intensity (ln)” value was 9.97. In the case of “CATACATTTAAAAAGTGTACGTATATGAAAAAAGGA [XGTACX_site6512]”, the “gcPBM binding intensity (ln)” value is reported as 9.68. With “ATATGTGTTATTTATACATGCAGAAGAATATCTATT [TGCATGCA_site828]” the “gcPBM binding intensity (ln)” value was 9.7. With “TGTGTGTGTATATGTGTGCACATATAAAATAGAAGA [GTGCAC_site9714]” the “gcPBM binding intensity (ln)” value was 10.7. “ACATATATATAATATATATATCATCATATTTTCTTA [CACACA_negctrl_site853]” was tested, and the “gcPBM binding intensity (ln)” value was 9.66. With “CTCAATATTATTACTACACACAAATTAAAATTTTCC [CACACA_site4203]” the “gcPBM binding intensity (ln)” value was 9.77. In the case of “AATAATCATGATCAAAGTACGTATGATTAAAAAAAA [XGTACX_site4916]”, the “gcPBM binding intensity (ln)” value is reported as 9.76. “TATATGTAAATGGACACACACATATATATATATATA [CACACA_site3659]” was tested, and the “gcPBM binding intensity (ln)” value was 9.91. With “TATGACCTTAGTAATTGTACACAAACATATTAATAT [XGTACX_site3340]” the “gcPBM binding intensity (ln)” value was 9.71. For “GAGTATATGATATATATATATATATAAAAAAAAAAA [GTGCAC_negctrl_site99]”, the “gcPBM binding intensity (ln)” value was 10. “TTGAGTTGTATAAAAAGTACAAGGTTTTAACTAAAT [XGTACX_site1447]” was tested, and the “gcPBM binding intensity (ln)” value was 9.64. For “TTATAATATTCATAAGGTACAGTTTATATATGTTAT [XGTACX_site8442]”, the “gcPBM binding intensity (ln)” value was 9.61. With “ATATATATTATATGCACACTAATAAGACTATTTAAA [CACACA_site3554]” the “gcPBM binding intensity (ln)” value was 9.66. For “GTATATGTACTATACGCACACACACCCACATATATA [CACACA_site9062]”, the “gcPBM binding intensity (ln)” value was 10.3. For “TGGTATATTATTTTTTGTACACATAAATGAAACATT [XGTACX_site5345]”, the “gcPBM binding intensity (ln)” value was 9.62. With “GTACCTATTTCATACACACACACACGCAAACAAACA [CACACA_site6590]” the “gcPBM binding intensity (ln)” value was 11.1. For “ATATAGATTCGACACACACACAAAAAAAAAAAAAAA [CACACA_site7677]”, the “gcPBM binding intensity (ln)” value was 10.1. For “CGTATATCACCAACTAGTACATATAAATAAATAAAT [XGTACX_site8837]”, the “gcPBM binding intensity (ln)” value was 9.67. In the case of “ATATATATATATATATGTACATATTATTATTTTGAT [XGTACX_site4752]”, the “gcPBM binding intensity (ln)” value is reported as 9.68. For “ATATATATAATAAACACACACATATACATAGATGTA [CACACA_site5841]”, the “gcPBM binding intensity (ln)” value was 10.2. With “TGGTCTTTTAAACAAAAATATAAATTTTTAAATATG [CACACA_negctrl_site392]” the “gcPBM binding intensity (ln)” value was 9.24. With “AAGAAAATTGTCTGAAGTACAAAACATTAATAATAT [XGTACX_site4864]” the “gcPBM binding intensity (ln)” value was 9.73. In the case of “AATTTAATATAATGCACACATAAAAAAAAAAAATTC [CACACA_site1504]”, the “gcPBM binding intensity (ln)” value is reported as 9.94. With “AGCTTGTGGATGCAGGTGCTACATTTGTTCTATAAT [GTGCAC_site9645]” the “gcPBM binding intensity (ln)” value was 9.77. In the case of “TATAAAAATATTTCTACACACATTAAAATATATATA [CACACA_site4770]”, the “gcPBM binding intensity (ln)” value is reported as 9.62. “AATGAAAGGATGCTGTGTACATATATATATATATAT [XGTACX_site7901]” was tested, and the “gcPBM binding intensity (ln)” value was 10.3. In the case of “CATTTGCCCAGGCACACACACATAAAAAGAAAAATA [CACACA_site356]”, the “gcPBM binding intensity (ln)” value is reported as 10.2. “TTTTTTTTGTGTTCAAGTACAAAATTTTAAAGGTCA [XGTACX_site4011]” was tested, and the “gcPBM binding intensity (ln)” value was 9.26. “GGTTATTTCACAGAATGTACTTATTATATATAAAAT [XGTACX_site8886]” was tested, and the “gcPBM binding intensity (ln)” value was 9.59. “TATATATATATATAAGCACACAAACAAAAAAAATTA [CACACA_site9293]” was tested, and the “gcPBM binding intensity (ln)” value was 9.81. With “AAGATAAATTATTATAAATCAATTGTGCCAACAATA [CACACA_negctrl_site144]” the “gcPBM binding intensity (ln)” value was 9.53. With “AATATAAATAAAAACACACACACACCGATATATATA [CACACA_site5283]” the “gcPBM binding intensity (ln)” value was 10.8. With “AAGATTAGGTTAATTAGTACTTATTATATTGTAATG [XGTACX_site3653]” the “gcPBM binding intensity (ln)” value was 9.36. For “GATCCATTATTGATCCGTACTTATTCATGTTATATA [XGTACX_site5946]”, the “gcPBM binding intensity (ln)” value was 9.77. With “TGTTATAAGATTTATGTACACACATATACACCCCTC [CACACA_site8141]” the “gcPBM binding intensity (ln)” value was 10.1. With “TATATATGTATATATACACACAACGGTTATAAATAT [CACACA_site1128]” the “gcPBM binding intensity (ln)” value was 9.86. With TATATATATATATGTATGCACTTTAATTTTATAAGG the “gcPBM binding intensity (ln)” value was 9.43. With “AATGTGTAGACACGCACACACAAAAAAATATATATA [CACACA_site5595]” the “gcPBM binding intensity (ln)” value was 10.7. “AATGTAGAAATGGGTGCACACACATATATAATATAT [CACACA_site8799]” was tested, and the “gcPBM binding intensity (ln)” value was 10.1. In the case of “GTTTTATTTTCAATGTGTACTTATTATTTGATATAC [XGTACX_site6402]”, the “gcPBM binding intensity (ln)” value is reported as 9.96. “TAATTTTTTTTAATAACACACATATAAATATAAATA [CACACA_site6521]” was tested, and the “gcPBM binding intensity (ln)” value was 9.31. For “CATTTGCACCCGCACACACACATAAAAAGAAAAATA [CACACA_site4350]”, the “gcPBM binding intensity (ln)” value was 11.1. With “GAAACAATTTGATATTGTACATAAATAAATAAAAAC [XGTACX_site8869]” the “gcPBM binding intensity (ln)” value was 9.75.
